According to PubChem BioAssay AID1508642 (National Center for Advancing Translational Sciences (NCATS), 2021):
The whole screen tested about 43,000 compounds, of which about 200 (0.47%) were called active. Roughly 12% stayed inconclusive and do not appear here. The call rests on the fitted dose curve; in most records, active means well fitted cell-killing curve with a large enough effect; inconclusive means small, poorly fitted or top-dose-only effect, or effect the other way; inactive means flat fitted curve, though single readings scatter. The list shows a part of the results.

Assay: Cell viability qHTS assay in S16 Pmp22-F2sN cells; further: nearly all actives have a fitted effect of over 65% in size
Details: S16 Pmp22-F2sN Schwann cells (luciferase reporters placed in the Pmp22 gene) viability, CellTiter-Glo, 24 h; series mostly up to 57.5 µM; activity change, negative = cytotoxicity: at the top concentration
Method in brief: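 Rat S16 Schwann reporter line, 24 h treatment with library compounds delivered at 23 nL per well. Cell viability by CellTiter-Glo luminescence.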
On the % scale 0 is the no-effect control and ±100 the full control effect; potency means the concentration at half of the fitted maximal effect.

SMILES | activity change, negative = cytotoxicity | Potency
Cc1ccc2sc(N(Cc3cccnc3)C(=O)Cc3ccccc3)nc2c1C | inactive: -6.67% | 
Cc1ccc(-n2nc3c(N4CCC(C(=O)NC5CCC(C)CC5)CC4)nnc(C)c3c2C)cc1 (stereo not drawn) | inactive: -23.4% | 
CCC(=O)Oc1cc(C(C)(C)C)cc2cc(-c3nc(-c4ccc(OC)cc4OC)no3)c(=O)oc12 | inactive: 2.76% | 
CCOc1ccc(N(CC(=O)Nc2cc(OC)cc(OC)c2)S(=O)(=O)c2c(C)[nH]c(=O)[nH]c2=O)cc1 | inactive: 4.96% | 
CN(C)CCNC(=O)c1ccc(Cn2c(SCc3ccc(F)cc3)nc3cccnc32)cc1 | inactive: -18% | 
Cc1ccc(C(=O)c2cn(Cc3ccccc3F)c3cc4c(cc3c2=O)OCCO4)cc1 | inactive: 1.4% | 
Cc1c(C(=O)N(C)C)sc2c1c(=O)n(-c1ccc(Cl)c(Cl)c1)c(=O)n2CC(=O)C(C)(C)C | inactive: 2.9% | 
COc1ccccc1CNC(=O)CCC(=O)N1CC(C)Sc2ccccc21 (stereo not drawn) | inactive: -19.5% | 
Cc1ccc(NC(=O)CSc2nc3ccccc3n2CC(=O)N2CCC(C)CC2)cc1C | inactive: -7.55% | 
Cc1csc2nc(COC(=O)c3cccc(NC(=O)c4cccc(Cl)c4)c3)cc(=O)n12 | inactive: -24.2% | 
CCc1nn(CC(=O)N2CCC(C)CC2)c(=O)c2cc3occc3n12 | inactive: 1.07% | 
CCCN(c1ccc(C(C)C)cc1)S(=O)(=O)c1ccc2c(c1)n(C)c(=O)c(=O)n2C | inactive: -2.54% | 
Cc1cccc(N2CCN(C(=O)CN3C(=O)COc4ccc(S(=O)(=O)N5CCC(C)CC5)cc43)CC2)c1C | inactive: 6.53% | 
COc1ccc(C(=O)Nc2cccc(-c3cn4ccsc4n3)c2)c(OC)c1 | inactive: 0.202% | 
O=S(=O)(Nc1cccc(C(F)(F)F)c1)c1ccc(NS(=O)(=O)c2ccc3c(c2)OCCO3)cc1 | inactive: 5.13% | 
COc1cccc(CNc2nc3ccccc3c3nc(-c4cccc(C)c4)nn23)c1 | inactive: 7.73% | 
CC(=O)c1cccc(NC(=O)Nc2c(C)n(C)n(-c3ccccc3)c2=O)c1 | inactive: -10.7% | 
COc1ccc(-c2cc(-c3ccccc3)nc(SCC(=O)Nc3ccccc3C)c2C#N)cc1 | inactive: -1.69% | 
Cc1ccc(CN(Cc2ccco2)C(=O)c2ccc(Cl)cc2Cl)cc1 | inactive: -22.7% | 
COc1ccc(CCNC(=O)Cn2nnc(-c3ccc(Cl)cc3)n2)cc1OC | inactive: 7.7% | 
O=C(CSc1ccc(-c2cccs2)nn1)Nc1ccccc1 | inactive: -12.3% | 
Cc1cccc(-c2nc(CCNC(=O)COc3ccccc3)cs2)c1 | inactive: 12.8% | 
CN(C)CCNC(=O)c1ccc(-n2c(-c3ccccc3)cc3c2CCCCC3)cc1 | inactive: 12.4% | 
CC(C)Oc1ccc(CN2CCc3nc(Nc4ccc5c(c4)OCCO5)ncc3C2)cc1 | inactive: 4.97% | 

SMILES | activity change, negative = cytotoxicity | Potency
Cc1ccc(Sc2c(C(=O)NCc3cccc(F)c3)[nH]c3ccccc23)cc1 | inactive: 21.3% | 
CC(NC(=O)CN1C(=O)COc2ccc(S(=O)(=O)N3CCCCCC3)cc21)c1ccccc1 (stereo not drawn) | inactive: 14.7% | 
CCOCCCn1c(SCC(=O)Nc2cc(C)ccc2C)nc2c(oc3ccccc32)c1=O | inactive: 0.917% | 
COC(=O)c1ccc(NC(=O)CN2CCCN(Cc3ccc(Cl)cc3)S2(=O)=O)cc1 | inactive: 3.82% | 
Cc1ccc(-c2nc3cc(NC(=O)c4cc5ccccc5o4)ccc3o2)cc1Cl | inactive: 0.472% | 
CCN1CCc2c(sc(NC(=O)c3ccc(S(=O)(=O)N(CCOC)CCOC)cc3)c2C(N)=O)C1 | inactive: 11.2% | 
COc1ccc(CC(=O)NCCS(=O)(=O)N2CCN(c3ccccc3F)CC2)cc1OC | inactive: -2.63% | 
Cc1ccc(C(=O)Nc2ccccc2C(=O)OCc2cc(=O)n3nc(C(C)C)sc3n2)cc1 | inactive: 9.69% | 
Cc1ccc(Cl)cc1N1CCN(CCCNC(=O)Cn2ncc3c([nH]c4ccccc43)c2=O)CC1 | inactive: 2.12% | 
Cc1ccc(C)c(NC(=O)CN(C)S(=O)(=O)c2cccc3cccnc23)c1 | inactive: 16.2% | 
COC(=O)c1ccccc1NC(=O)C1=CC(c2ccc3c(c2)OCO3)=NS(=O)(=O)N1C | inactive: 1.76% | 
Cc1ccc(CNc2nc3ccc(Cl)cc3n3cnnc23)cc1 | inactive: 2.67% | 
CCc1cccc(C)c1Nc1c(-c2ccc(SC)cc2)nc2sccn12 | inactive: -7.96% | 
O=C(CC1N=C2c3ccccc3N=C(SCc3ccc(F)cc3)N2C1=O)NC1CCCCC1 (stereo not drawn) | inactive: -28.4% | 
Fc1ccc(-c2noc3ncnc(Nc4ccc(F)cc4F)c23)cc1 | inactive: -28.8% | 
Cc1cccc(NC(=O)Cn2c(=O)n(Cc3ccccc3)c(=O)c3sc4ccccc4c32)c1 | inactive: 12.5% | 
CCOc1ccc(N(C(=O)c2ccc(Cl)cc2)S(=O)(=O)c2ccc3c(c2)n(C)c(=O)n3C)cc1 | inactive: 8.49% | 
CCOc1ccc(CCNC(=O)c2cccc(Nc3nc4ccccc4nc3-n3nc(C)cc3C)c2)cc1OCC | inactive: 4.64% | 
Cc1ccc(C)c(NC(=O)CSc2nc(-c3ccccc3)c(C#N)c(=O)[nH]2)c1 | inactive: 3.7% | 
CCc1nc2ccccc2n2c(-c3ccc(C)cc3)c3c(=O)n(C)c(=O)n(C)c3c12 | inactive: -19.1% | 
COc1ccc(-n2nc3ccc(NC(=O)c4c(OC)cccc4OC)cc3n2)cc1 | inactive: -2.07% | 
O=C(Cn1c(=O)n(-c2ccc(F)cc2)c(=O)c2sc3ccccc3c21)NC1CCCC1 | inactive: 20.2% | 
CCc1ccc2oc(C(=O)Nc3ccccc3OC)cc(=O)c2c1 | inactive: -2.37% | 
NC(=O)C1CCN(C(=O)c2ccc3c(c2)N(Cc2cccc(Cl)c2)C(=O)c2ccccc2S3=O)CC1 (stereo not drawn) | inactive: 2.17% | 

SMILES | activity change, negative = cytotoxicity | Potency
COc1ccc(CSc2nc3ccncc3n2CC(=O)Nc2cc(C)cc(C)c2)cc1 | inactive: 4.68% | 
CCOC(=O)c1c(C)[nH]c(C)c1S(=O)(=O)NCC(=O)Nc1ccc(C)cc1C | inactive: -2.23% | 
Cc1csc2nc(COC(=O)CNC(=O)c3ccc(F)cc3)cc(=O)n12 | inactive: -1.1% | 
Cc1cccc(N2CCN(C(c3ccccc3)c3nnc(-c4ccccc4F)o3)CC2)c1C (stereo not drawn) | inactive: -3.12% | 
Fc1ccc(Nc2nc(SCc3ccccc3Cl)nc3ccccc23)cc1 | inactive: -22.9% | 
Cc1cc(C)cc(NC(=O)C2CCCN(S(=O)(=O)c3cccc4nsnc34)C2)c1 (stereo not drawn) | inactive: 0.569% | 
COc1ccc(NC(=O)CSc2nc(-c3cccs3)cc(C(F)(F)F)n2)cc1Cl | inactive: 0.325% | 
CCc1ccc(NCc2cc3ccc(OC)cc3n(CC(=O)Nc3ccccc3C)c2=O)cc1 | inactive: 22.4% | 
CC(=O)c1cccc(NC(=O)CSc2nc3c(c(=O)[nH]2)CCC3)c1 | inactive: 3.86% | 
CCc1ccc(C(=O)CC2(O)C(=O)N(CCc3ccccc3)c3ccc(Br)cc32)cc1 (stereo not drawn) | inactive: -18.4% | 
CCCCN(CCCC)CCNC(=O)Cn1nc(CC)n2c(cc3sccc32)c1=O | inactive: 16.4% | 
COC(=O)c1ccc(Cl)cc1NC(=O)Nc1nnc(N(C)C2CCCCC2)s1 | inactive: 6.27% | 
CCc1ccccc1S(=O)(=O)Cc1ccc(C(=O)NCc2ccc(Cl)cc2)o1 | inactive: -14.4% | 
Cc1ccc(CNC(=O)C(NS(=O)(=O)c2cccs2)C(C)C)cc1 (stereo not drawn) | inactive: 9.28% | 
COc1ccc(CCC(=O)NCc2ccc3c(c2)CCN3C(=O)c2ccc(Cl)cc2)cc1 | inactive: -5.96% | 
Cc1ccc(CSC2=Nc3ccccc3C3=NC(CCC(=O)NC4CCCCC4)C(=O)N23)cc1 (stereo not drawn) | inactive: -4.21% | 
COCc1cc(C)nc2sc(C(=O)Nc3ccccc3O)c(N)c12 | inactive: -1.92% | 
Cc1ccc(OCCn2cc(C(=O)c3cccs3)c3ccccc32)cc1 | inactive: -4.82% | 
CCOc1ccc(C2=NC(c3ccncc3)=Nc3ccc(C)cc3N2)cc1OCC | inactive: 3.07% | 
CCCSCCCNC(=O)C1CCN(C(=O)c2cnn(-c3ccccc3)c2-n2cccc2)CC1 | inactive: -1.69% | 
COc1ccc(CNC(=O)Cn2c(=O)nc(-c3ccccc3)c3cc(Cl)ccc32)cc1OC | inactive: 3.78% | 
COc1ccccc1NC(=O)C1=C(C)Nc2c(C(=O)Nc3ccc(C)cc3)cnn2C1c1cccc(OC)c1OC (stereo not drawn) | inactive: 0.83% | 
Cc1ccccc1NC(=O)c1cc2c(-c3ccccc3)nn(-c3ccccc3)c2s1 | inactive: -3.43% | 
COc1ccc(N(Cc2ccccc2)C(=O)c2nc(S(C)(=O)=O)ncc2Cl)cc1 |  | active: 4.47 µM

SMILES | activity change, negative = cytotoxicity | Potency
CCn1c2ccccc2c2nnc(N3CCN(c4cccc(Cl)c4)CC3)nc21 | inactive: 12.1% | 
CCOC(=O)c1c(C)[nH]c(CCC(=O)NCc2ccc(OC)c(OC)c2)c1C | inactive: 3.37% | 
COc1ccc(-c2noc(CCCC(=O)Nc3cccc(Cl)c3C)n2)cc1 | inactive: -17.7% | 
Cc1ccc(CN2CCSc3ccc(C(=O)NCc4ccc(OC(C)C)cc4)cc32)cc1 | inactive: 21.5% | 
CSc1nn(CC(=O)Nc2ccccc2F)c(N)c1S(=O)(=O)c1ccccc1 | inactive: 15.8% | 
COc1ccc(CNC(=O)Cc2c(C)c3cc4c(C)coc4cc3oc2=O)cc1 | inactive: -0.228% | 
Cc1ccc(N2CCn3c2nc2c3c(=O)n(C/C=C/c3ccccc3)c(=O)n2C)cc1C | inactive: 18.7% | 
COCCCNC(=O)Cn1c(=O)n(-c2cccc(C)c2)c(=O)c2c1c1cc(C)ccc1n2C | inactive: 23.5% | 
COc1cc(/C=C(\C#N)c2nc3ccccc3[nH]2)ccc1OCc1ccc(F)cc1 | inactive: -3.04% | 
CCCN(CCC)CCCNC(=O)c1cnn(-c2ccc(F)cc2)c1-n1cccc1 | inactive: -3.78% | 
Cc1nn(C(C)C(=O)Nc2ccc(C(C)C)cc2)c(=O)c2c1sc1ccccc12 (stereo not drawn) | inactive: 2.12% | 
CC(NC(=O)C1CCN(S(=O)(=O)c2ccccc2)CC1)c1ccccc1 (stereo not drawn) | inactive: -4.39% | 
Cc1ccccc1CNC(=O)C1=Cc2ccccc2OC1 | inactive: 1.79% | 
Cc1cccc(-c2nn3c(=O)cc(CN4CCN(C(=O)c5ccccc5Br)CC4)nc3s2)c1 | inactive: -5.67% | 
C#CC(C)(CC)NC(=O)Cn1nnc(-c2ccc(OCc3ccccc3C)cc2)n1 (stereo not drawn) | inactive: -26.7% | 
COc1ccccc1N1CCN(C(=O)c2cnn(-c3cccc(Cl)c3)c2C2CCN(C(=O)OC(C)(C)C)CC2)CC1 | inactive: -17% | 
COc1ccccc1CNc1nc(-c2ccco2)nn1C(=O)c1cc(OC)c(OC)c(OC)c1 | inactive: 7.53% | 
Cc1ccc(-c2nnc(Nc3ccc(OC(F)(F)Cl)cc3)c3ccccc23)cc1S(=O)(=O)NC(C)(C)CO | inactive: 1.19% | 
CC(=O)N1CCc2c(sc3nc(SCC(C)C)n(-c4ccc(C)c(Cl)c4)c(=O)c23)C1 | inactive: 20.4% | 
O=C(COc1ccccc1)N(Cc1cccnc1)c1nc2c(F)cccc2s1 | inactive: -1.13% | 
Nc1ccc(NC(=O)c2cccc(C(=O)Nc3ccc(N)cc3Cl)c2)c(Cl)c1 | inactive: -2.63% | 
